The list shows a part of the results.
test system: T1, C. trachomatis L2/434/Bu expressing GFP (CTL2-GFP); design: species or system HeLa; C. trachomatis total inclusion area by high-content imaging, normalised to DMSO; settings: total inclusion area; 28.5 h, 10 µM; inhibitor
T1 construct: L2/434/Bu GFP intracellular growth in HeLa cells
Procedure, shortened: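 Post-fluorescence-read fixation, DNA staining with Hoechst and high-content imaging; GFP inclusion area and number per well, and nuclei counts, used as proxies for bacterial growth and host viability.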

Compared with `CC1CCN(Cc2ccc(-c3nnn(CC(=O)NCc4ccc(C(F)(F)F)cn4)n3)cc2)CC1` [CBK149722T], `O=S1(=O)CCN(Cc2cnn(-c3ccc(OC(F)(F)F)cc3)n2)CC1` [CBK112883] is lower in “% of control remaining” value: 90.7467 for the first, 63.3652 for the second.

Going from `CN1CCN(/N=C/c2c(C(F)(F)F)[nH]n(-c3nc4ccccc4s3)c2=O)CC1` [CBK263163] to `O=C(c1cnc2ccccc2c1)N1CCC(F)CC1` [CBK200273], the “% of control remaining” value rises from 103.782 to 108.243.

First: COc1cccc2ncn(Cc3n[nH]c(C)n3)c(=O)c12 [CBK306938]
Second: COc1cc(Nc2cncc(-c3cccc(F)c3)n2)cc(OC)c1OC [CBK065272]
The “% of control remaining” value of the first is lower: 74.768 for the first, 108.247 for the second.

Going from `NC(=O)C1(Cc2cccc(-c3cccs3)c2)CCN(C(=O)COc2ccccc2)CC1` [CBK285741] to `OCc1cccc(-c2nccnc2NCC(O)COc2ccccc2)c1` (stereo not shown) [CBK036842], the “% of control remaining” value rises from 84.3994 to 139.329.

Going from `CC1(C)CC(=O)C2=C(C1)Nc1ccccc1N(C(=S)NCc1ccco1)C2c1cccnc1` (stereo not shown) [CBK267342] to `CC(NC(=O)c1ncoc1-c1ccc2ccccc2c1)c1cccnc1` (stereo not shown) [CBK282441], the “% of control remaining” value falls from 137.434 to 115.998.

First: CCOCCCn1c(SCC(=O)NC(Cc2ccccc2)C(=O)O)nc2ccccc2c1=O (stereo not shown) [CBK297132]
Second: COC(=O)c1ccccc1NC(=O)CSc1nnc(-c2ccccc2)[nH]1 [CBK266338]
The “% of control remaining” value of the first is lower: 91.918 for the first, 120.303 for the second.

Compared with `COc1ccc(C(=O)C2=C(O)C(=O)N(CCN3CCNCC3)C2c2ccc(Cl)c(Cl)c2)cc1` (stereo not shown) [CBK264616], `CCN(CC)CCN1C(=O)C(O)=C(C(=O)c2ccc(Cl)cc2)C1c1cccc(Br)c1` (stereo not shown) [CBK265165] is lower in “% of control remaining” value: 117.322 for the first, 87.3505 for the second.

Compared with `Cc1nnc2sc(-c3ccccc3NC(=S)NC(=O)c3cc4ccccc4o3)nn12` [CBK268845], `COc1cc(NC(=O)Cc2cccc3ccccc23)c(C(=O)O)cc1OC` [CBK268206] is lower in “% of control remaining” value: 108.982 for the first, 86.1956 for the second.

Compared with `CC(Cc1nc(C2(Cl)CC2)cs1)n1cc(Cl)cn1` (stereo not shown) [CBK304715], `Cc1c(C(=O)NC(Cc2cccs2)c2nccs2)cnn1C` (stereo not shown) [CBK285053] is higher in “% of control remaining” value: 43.8524 for the first, 114.953 for the second.

Going from `CCNC(=O)N1CC2(CCN(Cc3cc(OC)c(OC)c(OC)c3)CC2)c2ccccc21` [CBK126689] to `COc1cc(-c2nccnc2N2CCCN(C)CC2)cc(OC)c1OC` [CBK037994], the “% of control remaining” value rises from 58.9751 to 89.2241.

First: O=S(=O)(Nc1nnn[nH]1)c1ccc(Br)cc1C(F)(F)F [CBK062388]
Second: O=C(O)CCNS(=O)(=O)c1ccc(Br)cc1 [CBK261941]
The “% of control remaining” value of the first is higher: 93.2719 for the first, 71.5359 for the second.

Compared with `Cc1ccc2c(CC(=O)N(C)CCN3CCCCC3)coc2c1` [CBK282747], `COc1ccc(C)cc1CC(=O)N(C)CCN1CCCCC1` [CBK282750] is lower in “% of control remaining” value: 116.032 for the first, 112.701 for the second.

Compared with `CCN(CC)C(=O)CN1CCC(Oc2cncc(OCC3COc4ccccc4O3)n2)C1` (stereo not shown) [CBK084374], `CC[C@H]1CN(C(=O)Nc2ccccc2)CC[C@H]1CC(=O)N(C)CC#N` [CBK288777] is higher in “% of control remaining” value: 103.161 for the first, 121.67 for the second.

Going from `Oc1ccc2c(c1)C(O)CC1(CCN(CC(O)c3ccc(-c4ccccc4)cc3)CC1)O2` (stereo not shown) [CBK286351] to `O=C(Nc1cccc2ccccc12)C(c1ccccc1)N1CCOCC1` (stereo not shown) [CBK269388], the “% of control remaining” value falls from 99.7392 to 88.6856.

Going from `CC(C)c1ccnc(C(C)Sc2nc(N)c(Br)c(Cl)n2)c1` (stereo not shown) [CBK016828] to `COc1ccc(C(C)C)cc1-c1cnc(N)c(NCCCN2CCOCC2)n1` [CBK063625], the “% of control remaining” value rises from 67.1223 to 108.51.

Going from `CC(C)(C)c1ccc(C(=O)Nc2ccccc2C(=O)Nc2ccc(C(=O)O)cc2)cc1` [CBK268626] to `O=C(Cn1cccc(C(=O)Nc2ccc(F)cc2)c1=O)NC1(c2ccccc2)CCCC1` [CBK286057], the “% of control remaining” value rises from 108.599 to 120.598.

Compared with `COC(=O)c1c(NC(=O)c2cc(C)on2)sc(C(=O)Nc2ccc(Cl)cc2)c1C` [CBK268116], `CCCCNC(=O)c1nnc(C(=O)Nc2cccc(Cl)c2)s1` [CBK294407] is lower in “% of control remaining” value: 105.816 for the first, 88.3932 for the second.

Going from `Cc1cc(-c2cn3cc(C(=O)N4CCCC4C)nc3c(=O)n2C)c(C)o1` (stereo not shown) [CBK307038] to `Cc1ccccc1Cn1nc(C)c(NC(=O)c2nc3n(n2)C(C(F)F)CC(C)N3)c1C` (stereo not shown) [CBK267633], the “% of control remaining” value rises from 57.9723 to 96.1743.

Going from `COCCN(Cc1cnn(C)c1)Cc1cc(O)c2cc(C)ccc2n1` [CBK306723] to `COc1ccc(CCc2nc(C)cc(CN(C)C)c2O)cc1` [CBK278313C], the “% of control remaining” value rises from 88.3015 to 97.4889.

Compared with `O=S1(=O)c2cc(/N=C/c3c(O)ccc4ccccc34)ccc2-c2ccc(/N=C/c3c(O)ccc4ccccc34)cc21` [CBK261240], `O=C(NCc1cccc2ccccc12)N1CCN(c2ccccc2)CC1` [CBK155175] is lower in “% of control remaining” value: 104.617 for the first, 94.1515 for the second.

Compared with `Cc1ccc(C)c(S(=O)(=O)NCCCn2ccnc2)c1` [CBK262205], `Cc1ccc(S(=O)(=O)Nc2ccc(C(=O)O)cc2)cc1` [CBK034060] is higher in “% of control remaining” value: 79.7684 for the first, 99.276 for the second.

Compared with `Cc1cccc(CSc2nnc(C(C)NC(=O)c3ccccc3F)n2C)c1` (stereo not shown) [CBK269732], `C[C@@H](c1ccccc1)n1c(=O)[nH]c2ncc(-c3cccc(/C=C/C(=O)O)c3)nc21` [CBK065040] is lower in “% of control remaining” value: 95.2884 for the first, 58.596 for the second.

Compared with `COc1ccc(NS(=O)(=O)c2cccs2)c(OC)c1` [CBK043915], `COc1ncc(-c2cncc(N[C@H](C)c3ccccc3)n2)c(OC)n1` [CBK065267] is higher in “% of control remaining” value: 99.7826 for the first, 119.404 for the second.

First: O=C(c1cscn1)N1CCCC(n2cnc3cc(F)ccc32)C1 (stereo not shown) [CBK284477]
Second: Cn1ccc(C(=O)N2CCC[C@H](C(=O)c3cccs3)C2)n1 [CBK282412]
The “% of control remaining” value of the first is higher: 114.935 for the first, 81.2631 for the second.

Compared with `Cc1cc(C)c2c(N)c(C(=O)O)sc2n1` [CBK131868], `O=C(O)c1cc(-c2ccc(F)cc2)n[nH]1` [CBK267848] is higher in “% of control remaining” value: 94.2509 for the first, 113.794 for the second.

Compared with `CCCC(=O)Nc1c(F)cc(F)cc1OC1CCNCC1` [CBK045892T], `COCc1ccc(C(=O)N2CCC(c3cc4ncccc4[nH]3)CC2)o1` [CBK283373] is lower in “% of control remaining” value: 98.4887 for the first, 87.8686 for the second.

First: CCN1CCN(c2ccc([N+](=O)[O-])cc2S(=O)(=O)N2CCOCC2)CC1 [CBK264410]
Second: CN1CCN(c2cc(N3CCN(C)CC3)c([N+](=O)[O-])cc2C2Nc3ccc4ccccc4c3C3=C2C(=O)CC(C)(C)C3)CC1 (stereo not shown) [CBK262381]
The “% of control remaining” value of the first is higher: 114.239 for the first, 71.5134 for the second.

Going from `COCC(C)NC(=O)Cn1c(C(F)F)cc2cccnc21` (stereo not shown) [CBK285010] to `COCCNC(=O)CN(C)c1nc(-c2ccncc2)nc2ccccc12` [CBK305611], the “% of control remaining” value rises from 84.9372 to 90.3359.

Compared with `Cc1nc(-c2cccc(OC(F)F)c2)n(C2CCN(C)CC2)n1` [CBK307382], `CC1CN(C(=O)OC(C)(C)C)CCN1c1nc2ccccc2nc1O` (stereo not shown) [CBK003877C] is higher in “% of control remaining” value: 31.4817 for the first, 71.9929 for the second.

First: COc1cc2c(cc1OC)C1c3ccccc3NC(c3ccc(C)cc3)N1CC2 (stereo not shown) [CBK286195]
Second: CC(=O)N1CCc2sccc2C1c1ccc(NCc2ccc(F)cc2)cc1 (stereo not shown) [CBK286442]
The “% of control remaining” value of the first is lower: 99.372 for the first, 106.194 for the second.

Compared with `c1cc(COc2ccc(N3CCNCC3)nn2)co1` [CBK022562], `CSc1nccc(OCCOc2nccnc2N2CCNCC2)n1` [CBK000718G] is higher in “% of control remaining” value: 73.0397 for the first, 113.085 for the second.

First: CCCCCC(=O)Nc1ccc(C(=O)CSc2nnc(-c3ccco3)o2)cc1 [CBK295134]
Second: O=C(O)CCC(=O)Nc1ccc(-c2ccc([N+](=O)[O-])cc2)cc1 [CBK261637]
The “% of control remaining” value of the first is higher: 94.5161 for the first, 73.876 for the second.

Compared with `O=C(CCn1cccn1)NCC1CCCOC1` (stereo not shown) [CBK281474], `COC(=O)N1CC2(CCCCC2NCc2c[nH]c(C)n2)c2ccccc21` (stereo not shown) [CBK083547T] is lower in “% of control remaining” value: 94.9767 for the first, 58.305 for the second.

Going from `Cc1nn(C)c(C)c1CN1CCOC(c2nc(C(C)(C)C)cs2)C1` (stereo not shown) [CBK304170] to `CC1(C)CC2(CC(C)(C(=O)CSc3nnc(-c4ccccc4Br)[nH]3)OC2=O)C(=O)O1` (stereo not shown) [CBK266713], the “% of control remaining” value rises from 72.8211 to 111.674.

Going from `CC(=O)Nc1cccc(-c2cc(Nc3ccc(N4CCN(Cc5ccccc5)CC4)cc3)ncn2)c1` [CBK037709] to `OC(COc1cccc(Oc2ccccc2)c1)CN1CCN(c2ccccc2F)CC1` (stereo not shown) [CBK267468], the “% of control remaining” value falls from 103.467 to 100.857.

First: CCCCc1ccc(-c2cnc3ncccc3c2N)cc1 [CBK083683]
Second: COCc1cccc(-c2ncc(OCc3ccccn3)nc2N)c1 [CBK145108]
The “% of control remaining” value of the first is lower: 83.2971 for the first, 102.36 for the second.

First: O=C(O)CCC(=O)NNC(=O)c1ccc(O)cc1 [CBK261353]
Second: O=C(O)CCCc1[nH]nc(O)c1Cc1c(Cl)cccc1Cl [CBK081137]
The “% of control remaining” value of the first is higher: 92.8288 for the first, 65.0459 for the second.

First: CNC(=S)NCc1nc(-c2ccc(C)cc2)no1 [CBK288418]
Second: CC(=O)Nc1cccc2c1NSN2 [CBK027082]
The “% of control remaining” value of the first is higher: 94.5063 for the first, 77.7464 for the second.

Going from `CCNc1nc2c(c(=O)[nH]c(=O)n2C)n1CCCc1ccccc1` [CBK269243] to `CC(C)CC1(C(CCN2C(=O)c3ccccc3C2=O)C(=O)NO)CCN(Cc2cccc(F)c2)C1=O` (stereo not shown) [CBK013032], the “% of control remaining” value falls from 96.9833 to 87.8.

`c1ccc(OCCOc2nccnc2-c2cc3ccccc3s2)cc1` [CBK106787] was tested, and the “% of control remaining” value was 91.5996.
